The results in this text go back to the RNAGym collection of RNA variant scans (doi:10.1101/gad.245936.114).

Variants at the floor of the assay are shown more often than the library holds them. Some results are limits rather than exact numbers.

B1: tRNA (parent)
chain: CUCUCGGUAGCCAAGUUGGUUUAAGGCGCAAGACUUUAAUUUAUCACUACGAAAUCUUGAGAUCGGGCGUUCGACUCGCCCCCGGGAGAUUUUUUCCUCGAGCAA

The variants in this series derive from B1. The series is described as follows: nonsense suppression (GFP-seq) (ratio to wild type); higher = more function; SUP4oc tRNA, yeast GFP reporter sort-seq. The gist of the method:
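Raffinose/galactose medium with 80 mg/L adenine was used to grow yeast carrying genome-integrated tRNA variants (~3% random-mutation library), RFP, and a galactose-driven GFP ochre reporter. Cells went into GFP/RFP bins, which were Illumina-sequenced, and variants with ≥100 reads and ≥30 cells were scored. Nonsense suppression (GFPSEQ) is the per-bin median GFP/RFP weighted by estimated cell share and expressed relative to the unmutated parent tRNA.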
For the variant CUCUCGGUAUCCGAUUUGGUUUAAGGCGCAAGAGUUUAAUUUAUCACUACGAAAUCUUGAGCUCGGGCGUUCGACUCGCCCCCGGGAGCUUUUUUCCUCGAGCAA, the nonsense suppression was no more than 0.026.

For CUCUCGAUAGCCAAGUUGGUUUAAGGCGCAAGACGUUAAUUUAUCACUACGAAAUCUUGAGAUGGGGCGUUCGACUCGCCCCCGGGAGAUUUUUUCCUCGAGCAA, the nonsense suppression is no more than 0.026.

Take CUCUCGGUAGCCAAGUUGGUUUAAGGCGCAGGACUUUAAUUUAUCACUACGAAAUCUUGAGAUCGGGCGUUCAACUCGCCCCCGGGAGAUUUUUUCCUCGAGCAA: the nonsense suppression came out at 0.366.

For the variant CGCUCGGUAGCCAAGUUGGUUUUAGGCGCAAGACUUUAAUUUAUCACUACGAAAUCUGGAGAUCGGGCGUUCGACUCGCCCCCGGGAGAUUUUUUCCUCGAGCAA, the nonsense suppression was no more than 0.026.

With CUCUCGGUAGACAGGUUGGUUUAAGGCGCAAGACUUUAAUUUAUCACUACGAAAUCUUGAAAUCGGGCGUUCGACUCGCCCCCGGGAGAUUUUUUCCUCGAGCAA, the nonsense suppression is no more than 0.026.

Regarding CCCUCGGUAGCCAAGUUGGUUUAAGGCGCAAGAAUUUAAUUUAUCACUACGAAAUCUUGAGUUCGGGCGUUCGACUCGCCCCCGGGAUAUUUUUUCCUCGAGCAA, the nonsense suppression is no more than 0.026.

Take CUCUCGGUAGCCAAGUUGGUUUUAGGCGCAGGACUUUAAUUUAUCACUACGAAAUCUUGAGAUCGGGCGUUCGACUCGCCCCCGGGAGAUUUUUUCCUCGAGCAA: the nonsense suppression was no more than 0.026.

On to GUCUCGGUAGCCAAGUUGGUUUAAGGGGCAAGACUUUAAUUUAUCACUACGAAAUCUUGAGAUCGGGCGUUCUACUCGCCCCCGGGAGAUUUUUUCCUCGAGCAA, for which the nonsense suppression is no more than 0.026.

In the case of CUCUCGUUAGCUAAGUUGGUUUAAGGCGCAAGACUUUAAUUUAUCACUACGAAAUCUUGAGAUCGGGCGUUCGACUCGCCCCCGGGAGAUUUUUUCCUCGAGCAA, the nonsense suppression is no more than 0.026.

Regarding CUCUCGGUAGCCAAGUUGGUUUAAGGCGGACGACGUUAAUUUAUCACUACGAAAUCUUGAGAUCGGGCGUUCGACUCGCCCCCGGGAGAUUUUUUCCUCGAGCAA, the nonsense suppression was no more than 0.026.

On to CUCUCGGUAGCCAAGUUGGUUUAAGGCGCAAGACUUUAAUUUAUCACUACGAAAUCUUAAGAUCGGGGGUUCGACCCGCCCCCGGGAGAUUUUUUCCUCGAGCAA, for which the nonsense suppression is no more than 0.026.

Take CUCUCGGUAGCCAAGUUGGUUUAAGGCGCAAGAUUUUAAUUUAUCACUACGAAAUCUUGAGAGCGGGCGUUCGACUCGCCCCCGGGAGAUUUUUUCCUCGAGCAA: the nonsense suppression is no more than 0.026.

For the variant CUCUCGCUAGCCAAGUUGGUUUAAGGCGCAAGACUUUAAUUUAUCACUACGAAAUCUUCACAUCGGGCGUUCGACUCGCCCCCGGGGGAUUUUUUCCUCGAGCAA, the nonsense suppression was no more than 0.026.

Regarding CUCUCGGUAGCCAAGUUGGUUUAAGGCGGAAGACUUUAAUUUAUCACUACGAAAUCUUGAGAUCGGGCGUUCGACUCGCCCCCGGCAGAUUUUUUCCUCGAGCAA, the nonsense suppression was no more than 0.026.

For CUCUCGGUAGCCAAGUUGGUUUAAGGCGCAAGACUUUAAUUUAUCACUACGAAAUCUUGAGAUCGGGCGUUCGACUCGCCCCCGGGAUCUUUUUUCCUCGAGCAA, the nonsense suppression is no more than 0.026.

CCCUCGGUAGCCAAGUUGGUUUAAGGCGCAAGACUUUAAUUUAUCACUACGAAAUCUUGAGAUCGGGCGUUCGGCUCGCCCCCGGGAGAUUUUUUCCUCGAGCAA: the nonsense suppression was no more than 0.026.

For CUCUCGGUAGCCAACUUGGUCUAAGGCGCAAGACUUUAAUUUAUCACUACGAAAUCUUGAAAUCGGGCGUUCGACUCGCCCCCGGGAGAUUUUUUCCUCGAGCAA, the nonsense suppression is no more than 0.026.

Take CUCUUGGUAGCCAAGUUGGGUUAGGGCGCAAGACUUUAAUUUAUCACUACGAAAUCUUGAGAUCGGGCGUUCGACUCGCCCCCGGGAGAUUUUUUCCUCGAGCAA: the nonsense suppression is no more than 0.026.

On to AUCUCGGUAGCCAAGUUGGUUUAAGGCGCAAGGCUUUAAUUUAUCACUACGAAAUCUUGAGAUCGGGCGUUCGACUCGCCCCCGGGAGAUUUUUUCCUCGAGCAA, for which the nonsense suppression is no more than 0.026.

As for CUCUCGGUAGCCAAGUUGGUUUAAGGCGCAAGACCUUAAUUUAUCACUACGAAAUCUUGAGCUCGGGCGUUCGACUAGCCCCCGGGAGAUUUUUUCCUCGAGCAA, the nonsense suppression was no more than 0.026.

For the variant CUCUCGGUAGCCAAGUUGGUUUAAGGCGCAAGACUUUAAUUUAUCACUACGAAAUCUUGCGAUCGGGCGUUCCACUCGCCACCGGGAGAUUUUUUCCUCGAGCAA, the nonsense suppression was no more than 0.026.

Regarding CUCACGGUAGCCAAGUUGGGUUAAGGCGCAAGACUUUAAUUUAUCACUACGAAAUCUUGAGAUCGGGUGUUCGACUCGCCCCCGGGAGAUUUUUUCCUCGAGCAA, the nonsense suppression was no more than 0.026.

Regarding CUCUCGGUAGCCAAGUUGGUUUAAGACGCAAGGCUUUAAUUUAUCACUACGAAAUCUUGAGAUCGGGCGUUCGACUCGCCCCCCGGAGAUUUUUUCCUCGAGCAA, the nonsense suppression is no more than 0.026.

Regarding CUCUUGGUAGCCAAGUUGGUUUAAGGCGCAAGACUUUAAUUUAUCACUACGAAAUCUUGAGAUCGGGCGUUCGACACGCCCCCGGGAGAUUUUUUCCUCGAGCAA, the nonsense suppression was no more than 0.026.

Take CUCUCGGUAACCAAGUUGGUUUAAGGCGCAAGAGUUUAAUUUAUCACUACGAAAUCUUGAGAUCGGGCGUUCGACUCGCGCCCGGGACAUUUUUUCCUCGAGCAA: the nonsense suppression is no more than 0.026.

In the case of CUCUCGGUAGCCAAGUUGGUUUAAGGCGCAAGACUUUAAUUUAUCACUACGAAAUCUUGAGAUCGGGCGUUCGACACGCCCCUGGGAGAUUUUUUCCUCGAGCAA, the nonsense suppression is no more than 0.026.

In the case of CUCUCGGUAGCCAAGUUGGUUUAAGGCGCAAGACUUUAAUUUAUCACUACGAAUUCUUGAGAUCGGGCGUCCGACUCGCCCCCAGGAGAUUUUUUCCUCGAGCAA, the nonsense suppression was no more than 0.026.
